Consider 115 sequences from the BET-seq Pho4 binding data (Le et al. 2018).

The other results are listed elsewhere or left out. Values were computed here from the reads of four pooled replicates and scatter widely.

The target of the assay is T1, Pho4 (S. cerevisiae) (UniProt P07270).
T1 sequence: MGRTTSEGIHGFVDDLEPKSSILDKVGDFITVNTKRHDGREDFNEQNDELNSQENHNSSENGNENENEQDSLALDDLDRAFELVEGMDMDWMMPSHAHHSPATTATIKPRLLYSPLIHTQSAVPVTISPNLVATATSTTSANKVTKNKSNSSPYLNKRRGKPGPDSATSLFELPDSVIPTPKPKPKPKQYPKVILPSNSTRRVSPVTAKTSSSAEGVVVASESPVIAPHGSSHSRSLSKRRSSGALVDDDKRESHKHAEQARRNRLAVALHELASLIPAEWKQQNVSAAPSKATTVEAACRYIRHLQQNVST
The experiment in a line: relative binding free energy (BET-seq); higher = weaker binding. Particulars: reference: library average.
For the sequence GGTAACACGTGCTGGC, the “relative binding free energy” value stood at 0.13 kcal/mol.

Consider TTTAGCACGTGTAAGG, for which the “relative binding free energy” value stood at 0.04 kcal/mol.

Regarding ACAGTCACGTGGTAGT, the “relative binding free energy” value is -0.01 kcal/mol.

For the sequence CAGTTCACGTGTGTGC, the “relative binding free energy” value came out at 0.22 kcal/mol.

In the case of TTGCTCACGTGTGTCG, the “relative binding free energy” value worked out at 0.31 kcal/mol.

In the case of GGATGCACGTGCTTGT, the “relative binding free energy” value is -0.06 kcal/mol.

In the case of GCGCGCACGTGGGTGT, the “relative binding free energy” value is -0.18 kcal/mol.

With ATCGGCACGTGGGAGG, the “relative binding free energy” value was -0.11 kcal/mol.

For TGGTGCACGTGTTGAG, the “relative binding free energy” value came to 0.05 kcal/mol.

As for TGGTACACGTGTTGTA, the “relative binding free energy” value is 0.06 kcal/mol.

For the sequence GGGCGCACGTGTTTAA, the “relative binding free energy” value stood at 0.07 kcal/mol.

Turning to GCATGCACGTGGTATT, the “relative binding free energy” value is -0.04 kcal/mol.

For the sequence ATTATCACGTGGGTCC, the “relative binding free energy” value was 0.1 kcal/mol.

As for TCTGGCACGTGGGGGC, the “relative binding free energy” value was -0.17 kcal/mol.

For TAGGTCACGTGTCCGT, the “relative binding free energy” value worked out at 0.06 kcal/mol.

For the sequence CTTTACACGTGGTTAA, the “relative binding free energy” value is -0.05 kcal/mol.

For GTTTACACGTGACGGG, the “relative binding free energy” value was 0.27 kcal/mol.

In the case of GTATGCACGTGGATGC, the “relative binding free energy” value amounted to 0.06 kcal/mol.

In the case of TTAAACACGTGGTTCT, the “relative binding free energy” value is -0.14 kcal/mol.

In the case of AAATACACGTGGGAGT, the “relative binding free energy” value is -0.11 kcal/mol.

With GTATTCACGTGGACGT, the “relative binding free energy” value came to 0.23 kcal/mol.

Consider TAGGTCACGTGGTATG, for which the “relative binding free energy” value turned out to be 0.03 kcal/mol.

Regarding CGTTTCACGTGTCATG, the “relative binding free energy” value was determined as 0.26 kcal/mol.

For the sequence GTATGCACGTGCGAGT, the “relative binding free energy” value is -0.02 kcal/mol.

For the sequence CATTGCACGTGTGTGG, the “relative binding free energy” value stood at 0.1 kcal/mol.

Turning to TTCTGCACGTGGATTG, the “relative binding free energy” value was -0.01 kcal/mol.

As for TTGAACACGTGGTGCA, the “relative binding free energy” value is -0.07 kcal/mol.

Regarding TGGCACACGTGTTATT, the “relative binding free energy” value amounted to 0.16 kcal/mol.

On to ATTAGCACGTGATTCT, for which the “relative binding free energy” value is 0.05 kcal/mol.

Consider TAATTCACGTGTCGAG, for which the “relative binding free energy” value worked out at 0.18 kcal/mol.

As to CAGTGCACGTGTGGGC, the “relative binding free energy” value was -0.11 kcal/mol.

For the sequence TGGTGCACGTGGTTCT, the “relative binding free energy” value is -0.13 kcal/mol.

Consider ACATTCACGTGTTTAT, for which the “relative binding free energy” value was 0.28 kcal/mol.

On to TCCTTCACGTGGTTTT, for which the “relative binding free energy” value stood at 0.32 kcal/mol.

ATTGACACGTGGTATG: the “relative binding free energy” value was -0.17 kcal/mol.

As for GATGTCACGTGGCTAA, the “relative binding free energy” value stood at 0.36 kcal/mol.

TTCAGCACGTGTATTT: the “relative binding free energy” value was determined as 0.12 kcal/mol.

For AGTAGCACGTGGGTGT, the “relative binding free energy” value was -0.27 kcal/mol.

On to ACTAGCACGTGTTGGT, for which the “relative binding free energy” value came to 0 kcal/mol.

AGTTTCACGTGGTGCC: the “relative binding free energy” value is 0.22 kcal/mol.

With ATGTGCACGTGTTTAT, the “relative binding free energy” value is -0.01 kcal/mol.

Regarding CTATGCACGTGGAGTA, the “relative binding free energy” value was -0.03 kcal/mol.

For ATCGGCACGTGGTTCG, the “relative binding free energy” value was -0.1 kcal/mol.

GTATGCACGTGCGGAG: the “relative binding free energy” value was -0.07 kcal/mol.

On to GATAGCACGTGGGCGT, for which the “relative binding free energy” value is -0.32 kcal/mol.

For GTGTTCACGTGACATT, the “relative binding free energy” value was 0.3 kcal/mol.

Consider AGCGACACGTGCGGGG, for which the “relative binding free energy” value is -0.07 kcal/mol.

As to GGCTGCACGTGTCGGG, the “relative binding free energy” value came to 0.14 kcal/mol.

As to TTGGGCACGTGAGTCG, the “relative binding free energy” value is 0.16 kcal/mol.

As for TATAGCACGTGAGTGG, the “relative binding free energy” value worked out at 0.17 kcal/mol.

Regarding TTTACCACGTGTGTGC, the “relative binding free energy” value was -0.04 kcal/mol.

For CGGGGCACGTGTTGAA, the “relative binding free energy” value was -0.24 kcal/mol.

For TAGTCCACGTGAGTTT, the “relative binding free energy” value was 0.21 kcal/mol.

With TGGTCCACGTGGTTTT, the “relative binding free energy” value worked out at 0.01 kcal/mol.

For GGGGTCACGTGGGTTA, the “relative binding free energy” value amounted to 0.05 kcal/mol.

As to ATGCTCACGTGTGTTA, the “relative binding free energy” value was determined as 0.17 kcal/mol.

On to GAGGGCACGTGAAGCG, for which the “relative binding free energy” value amounted to 0.09 kcal/mol.

Consider TGGGACACGTGGGGGC, for which the “relative binding free energy” value was -0.09 kcal/mol.

On to TTCTTCACGTGATGAT, for which the “relative binding free energy” value is 0.38 kcal/mol.

Consider GTCAGCACGTGTCTGT, for which the “relative binding free energy” value was -0.04 kcal/mol.

For the sequence TAAATCACGTGTGAAT, the “relative binding free energy” value is 0.25 kcal/mol.

In the case of GCTAGCACGTGGCGCG, the “relative binding free energy” value turned out to be 0.1 kcal/mol.

Consider TCTGGCACGTGGTGGC, for which the “relative binding free energy” value was -0.27 kcal/mol.

As to GCTCGCACGTGGGGGC, the “relative binding free energy” value was -0.08 kcal/mol.

On to CGAGTCACGTGTAGGT, for which the “relative binding free energy” value was found to be 0.16 kcal/mol.

Take TTTAGCACGTGTACTG: the “relative binding free energy” value was -0.18 kcal/mol.

As to ATACTCACGTGTGGTG, the “relative binding free energy” value was determined as 0.11 kcal/mol.

Take ATGATCACGTGGTGGT: the “relative binding free energy” value is 0.16 kcal/mol.

Take CGTATCACGTGGGGCG: the “relative binding free energy” value was -0.02 kcal/mol.

With TTGTTCACGTGCATTT, the “relative binding free energy” value came to 0.27 kcal/mol.

AATGGCACGTGTGGGC: the “relative binding free energy” value was 0.01 kcal/mol.

In the case of TGGGTCACGTGGAGTC, the “relative binding free energy” value is 0 kcal/mol.

With GTGGTCACGTGAAAGG, the “relative binding free energy” value amounted to 0.34 kcal/mol.

For the sequence AAGTTCACGTGGAATT, the “relative binding free energy” value worked out at 0.46 kcal/mol.

With ATGGACACGTGGGAGT, the “relative binding free energy” value is -0.12 kcal/mol.

Turning to TCAGTCACGTGGTGGG, the “relative binding free energy” value was determined as 0.13 kcal/mol.

For TGTGCCACGTGTTCAG, the “relative binding free energy” value is -0.12 kcal/mol.

On to CTAGTCACGTGGATTG, for which the “relative binding free energy” value came to 0.02 kcal/mol.

Consider TGAATCACGTGAAGTG, for which the “relative binding free energy” value was 0.32 kcal/mol.

For the sequence GTTGTCACGTGTGCTT, the “relative binding free energy” value is 0.17 kcal/mol.

Consider GGATACACGTGCAGTG, for which the “relative binding free energy” value came to 0.12 kcal/mol.

Turning to GGCTTCACGTGGTTAG, the “relative binding free energy” value turned out to be 0.17 kcal/mol.

On to TAGGTCACGTGTGATC, for which the “relative binding free energy” value was determined as 0.18 kcal/mol.

Regarding ATAATCACGTGCTGGT, the “relative binding free energy” value was found to be 0.11 kcal/mol.

Consider GGGCACACGTGCGGTA, for which the “relative binding free energy” value worked out at 0.03 kcal/mol.

For CGTGTCACGTGGAAGA, the “relative binding free energy” value is 0.2 kcal/mol.

Turning to AGAGCCACGTGGGGCG, the “relative binding free energy” value is -0.25 kcal/mol.

Turning to TAAGTCACGTGGCTGT, the “relative binding free energy” value came to 0.04 kcal/mol.

On to CATGGCACGTGGGTAT, for which the “relative binding free energy” value is -0.18 kcal/mol.

For the sequence TTAGGCACGTGGAATA, the “relative binding free energy” value is -0.06 kcal/mol.

For CCGGGCACGTGGGTTA, the “relative binding free energy” value was -0.27 kcal/mol.

On to GGTGACACGTGCGGGT, for which the “relative binding free energy” value was -0.01 kcal/mol.

Turning to TTTTACACGTGTGCGC, the “relative binding free energy” value is 0.1 kcal/mol.

As to GTAGACACGTGGCGGG, the “relative binding free energy” value is 0 kcal/mol.

For TGGGTCACGTGAACTG, the “relative binding free energy” value worked out at 0.38 kcal/mol.

On to TCGGTCACGTGTTGAA, for which the “relative binding free energy” value stood at 0.28 kcal/mol.

Take ATGGTCACGTGGTCCG: the “relative binding free energy” value is 0.04 kcal/mol.

In the case of TTAGTCACGTGATTTC, the “relative binding free energy” value was 0.12 kcal/mol.

For TACTTCACGTGTGTTG, the “relative binding free energy” value turned out to be 0.28 kcal/mol.

Regarding GGTTGCACGTGATACT, the “relative binding free energy” value was 0.13 kcal/mol.

Take GGAGCCACGTGGGTAT: the “relative binding free energy” value was -0.21 kcal/mol.

On to TGAGACACGTGGGGTT, for which the “relative binding free energy” value was -0.06 kcal/mol.

Turning to GAGTTCACGTGAGCTG, the “relative binding free energy” value was 0.37 kcal/mol.

On to TTGATCACGTGGAGAG, for which the “relative binding free energy” value was 0.11 kcal/mol.

With TCTATCACGTGGAGGT, the “relative binding free energy” value amounted to 0.22 kcal/mol.

As for TTATACACGTGATTTG, the “relative binding free energy” value came to 0.23 kcal/mol.

For ATTGGCACGTGTAGTG, the “relative binding free energy” value is -0.09 kcal/mol.

Turning to AGAGGCACGTGGCGGT, the “relative binding free energy” value is -0.21 kcal/mol.

As to TGTGACACGTGCGAGG, the “relative binding free energy” value came to 0 kcal/mol.

As to GTGGGCACGTGGTTCC, the “relative binding free energy” value was 0 kcal/mol.

With ATAGACACGTGATTTG, the “relative binding free energy” value is -0.01 kcal/mol.

As to GTCGGCACGTGGATAG, the “relative binding free energy” value is -0.01 kcal/mol.

GTAGGCACGTGTCGGA: the “relative binding free energy” value was -0.08 kcal/mol.

TCTAGCACGTGTGAAG: the “relative binding free energy” value is 0.1 kcal/mol.

Take TGTGTCACGTGAGATA: the “relative binding free energy” value amounted to 0.14 kcal/mol.
